Laboratory results: PubChem BioAssay AID652104 (National Center for Advancing Translational Sciences (NCATS), 2013)
The whole screen tested about 410,000 compounds, of which about 7,200 (1.8%) were called active. Inconclusive results, whose numbers are uncertain, are shown with a selection of clear calls. Calls come from the whole dose curve; as a rule, active = well fitted activation curve with a large enough effect; inconclusive = small, poorly fitted or top-dose-only effect, or another doubt; inactive = no such curve, though single readings can be large or run the other way. Potencies of inconclusive entries are doubtful fits and often do not repeat.

Assay: qHTS of TDP-43 Inhibitors; note: nearly all actives have a fitted effect of over 50% in size
Conditions: TDP-43 expressing yeast growth rescue, BacTiter-Glo, 24 h; series mostly up to 46.1 µM
In short: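 In this qHTS, compounds that restore growth of yeast expressing TDP-43 appear as activators. Cells (OD600=0.02, galactose medium, raffinose-pregrown) are incubated with compound 24 hr at 30 deg C and growth is quantified by BacTiter-Glo.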
Potency is the fitted concentration of half-maximal effect; tags give direction and shape of the fitted curve.

Potency, active:
C[C@@]12C(=O)Nc3ccc(F)cc3C(=O)N1[C@H]1c3ccccc3OC[C@@H]1[C@@H]2c1ccccc1 14.1 µM
Nc1nc(SCc2ccc(Cl)cc2)ns1 15.8 µM
Cc1nn(C)c(C)c1/C=C/C(=O)c1ccc(Cl)cc1Cl 25.1 µM
COc1ccc(-c2csc(NC(=O)CSCc3c(C)noc3C)n2)c(OC)c1 15.8 µM
Cc1ccc(-c2cc(C(=O)N/N=C/c3cccnc3)c3ccccc3n2)cc1C 22.4 µM
Cc1cccc(Nc2nnc(SCC(=O)Nc3ccccc3[N+](=O)[O-])s2)c1C 12.6 µM

Potency, inactive:
Cc1cccc(CC(=O)N2CC(=O)Nc3ccc(Br)cc3C2c2ccc(F)cc2)c1 (stereo not given)
CCCCn1c(N)c(N(CCC(C)C)C(=O)c2[nH]c(C)c(C(=O)OCC)c2C)c(=O)[nH]c1=O
COCCCNC(=O)CSc1nc2c(sc3ccccc32)c(=O)n1CCc1ccc(OC)c(OC)c1
O=C(NCC(c1cccs1)S(=O)(=O)c1ccccc1)c1ccc(C(F)(F)F)cc1 (stereo not given)
CCn1c(COc2ccccc2)nnc1SCC(=O)Nc1ccc2c(c1)OCCO2
COc1ccc(C(=O)NCc2ccccc2OC)c(OC)c1

Potency, inconclusive:
CCN(CC)S(=O)(=O)c1cccc(NC(=O)c2cc3ccccc3o2)c1 31.6 µM [activator, single point]
CC1CCCCN1S(=O)(=O)c1ccc(NC(=O)c2ccco2)cc1 (stereo not given) 12.6 µM [activator, partial curve]
O=Cc1ccc2c(c1)CCN2Cc1ccccc1 7.94 µM [activator, partial curve]
CC(C)(C)C(=O)OC/C(N)=N/OC(=O)c1ccccc1 12.6 µM [activator, single point]
CC(=O)Nc1ccc(Nc2cc(C)nc3c(-c4ccccc4)cnn23)cc1 3.98 µM [activator, single point]
CCCCCCC(=O)Nc1c(O)c2ccccc2[nH]c1=O 8.91 µM [activator, partial curve]
c1ccc(-c2ccc(C3=Nn4c(Cn5nnc6ccccc65)nnc4SC3)cc2)cc1 10 µM [activator, partial curve]
N#Cc1ccc(C(C(=O)NCc2ccccc2)n2c(=O)c(-c3cc4ccccc4[nH]3)nc3ccccc32)cc1 (stereo not given) 0.224 µM [activator, partial curve, poor fit]
N=C1SC(c2ccccc2)C(=O)N1c1ncc(Cc2ccccc2Cl)s1 (stereo not given) 0.891 µM [activator, full curve, poor fit]
CCOC(=O)c1c(C)[nH]c(C)c1C(=O)COC(=O)/C=C/c1ccc(OC(F)F)cc1 28.2 µM [activator, single point]
NC(=O)c1ccccc1OCc1cccc2ccccc12 8.91 µM [activator, partial curve]
Cc1c(/C=C/C(=O)c2ccccc2O)cnn1C 11.2 µM [activator, partial curve]
CCOc1ccccc1NC(=O)CCc1c(C)nn(-c2ccc(N3CCCCC3)nn2)c1C 1 µM [activator, full curve, poor fit]
O=C(Oc1ccc(Br)cc1C(=S)N1CCCCC1)c1cc([N+](=O)[O-])cc([N+](=O)[O-])c1 20 µM [activator, single point]
Cc1ccc(CSc2nnc(-c3ccncc3)o2)c(C)c1 10 µM [activator, partial curve]
CC1CCc2[nH]c3ccc(C(=O)N(C)CC(=O)Nc4ccccc4Cl)cc3c2C1 (stereo not given) 3.55 µM [activator, partial curve]
COc1ccc(C)cc1N(C(=O)c1ccc(C#N)cc1)C1=NC(C)(C)CS1 35.5 µM [activator, single point]
O=C(CN(Cc1ccccc1)S(=O)(=O)c1ccc(F)cc1)NCCC1=CCCCC1 28.2 µM [activator, partial curve]
COc1cccc2[nH]c(=O)c(-c3ccccc3)cc12 5.62 µM [activator, partial curve]
O=C(NCCc1ccccc1)c1ccc(-c2cccnc2)c2ccoc12 10 µM [activator, partial curve]
COc1ccccc1-c1noc(-c2cc(OC)c(OC)c(OC)c2)n1 20 µM [activator, single point]
CCc1ccccc1C1C(=O)c2ccccc2C1=O 10 µM [activator, single point]
Cc1ccccc1C#N 12.6 µM [activator, partial curve]
COc1ccc(NC(=O)CSC2=Nc3ccccc3C3=NC(CC(=O)NCCc4ccccc4)C(=O)N23)cc1 (stereo not given) 2.82 µM [activator, partial curve]
COc1ccc(NCc2cccn2-c2nnc(N3CCCCCC3)s2)cc1 35.5 µM [activator, partial curve, poor fit]
COc1ccc(/C=N/NC(=S)Nc2ccccc2[N+](=O)[O-])cc1O 11.2 µM [activator, single point]
Cc1ccnc(NC(=O)c2ccccc2NC(=O)c2ccc(Cl)cc2Cl)c1 1.58 µM [activator, partial curve]
Cc1scc(CN2CCN(c3ccccc3F)CC2)c1C 6.31 µM [activator, partial curve, poor fit]
COc1ccc(CCNC(=O)c2nnn(-c3cccc(C)c3)c2N)cc1OC 31.6 µM [activator, single point]
CN(Cc1ccccc1)C(=O)CSc1nnc(-c2cccc(Cl)c2)o1 14.1 µM [activator, single point]
CCCc1cc(C(N)=O)c(NC(=O)c2ccco2)s1 12.6 µM [activator, single point]
Clc1cccc(Oc2cnc3ccccc3n2)c1 11.2 µM [activator, partial curve]
Cc1cccc(N2CCN(C(=O)c3ccccc3NC(=O)C3=CSCCO3)CC2C)c1 (stereo not given) 35.5 µM [activator, single point]
O=C(c1cnn(C(=O)CN2CCCC2=O)c1)c1ccccc1O 35.5 µM [activator, single point]
CC(=O)Oc1cc2c(c3ccccc13)CCC2=O 35.5 µM [activator, single point]
O=C(c1[nH]c(C(F)(F)F)nc1-c1ccccc1)N1CCC(Cc2ccccc2)CC1 17.8 µM [activator, single point]
Cc1cccc(C)c1OCC(O)CNS(=O)(=O)c1ccccc1C(=O)N1CCCCC1 (stereo not given) 17.8 µM [activator, single point]
COc1ccc(OC)c(CNC(=O)Nc2cn(CC(C)C)c(=O)c3ccccc23)c1 35.5 µM [activator, partial curve]
Cc1cccc(NC(=O)Cn2c(=O)n(Cc3ccc4c(c3)OCO4)c(=O)c3oc4ccccc4c32)c1C 0.316 µM [activator, full curve, poor fit]
CC1CCN(S(=O)(=O)c2ccc(C(=O)Nc3nnc(C4CC4)o3)cc2)CC1 35.5 µM [activator, single point]
CC(=O)c1cccc(NC(=O)c2cnn3ccccc23)c1 7.08 µM [activator, partial curve]
Cc1ccc(-c2noc(CCC(=O)N(C)c3ccccc3F)n2)cc1 14.1 µM [activator, single point]
Cc1cccc(NC(=S)N/N=C/c2c[nH]c3ccccc23)c1 35.5 µM [activator, single point]
Fc1ccccc1-c1nc(N2CCN(c3cccc(Cl)c3)CC2)c2ccccc2n1 12.6 µM [activator, partial curve]
COc1cccc(NC(=O)COC(=O)c2sccc2C)c1 35.5 µM [activator, single point]
Cc1ccc(OCCn2c(=O)sc3ccccc32)cc1 35.5 µM [activator, partial curve, poor fit]
Cc1ccc(S(=O)(=O)NCc2cccc([N+](=O)[O-])c2)cc1 12.6 µM [activator, partial curve]
O=C(c1ccccc1Cl)N1CCC(n2cccc2)CC1 22.4 µM [activator, partial curve]
CCCC(=O)Nc1nnc(Cc2ccccc2)s1 35.5 µM [activator, single point]
Cc1cccc(Nc2c3c(nc4nncn24)CCC3)c1C 15.8 µM [activator, single point]
COC(=O)c1cnc(Oc2c(Cl)cc(N)cc2Cl)cc1C(F)(F)F 14.1 µM [activator, single point]
O=C1N=C(N2CCOCC2)S/C1=C\C=C/c1ccccc1 11.2 µM [activator, partial curve]
CCc1ccc(N2CCN(C(=O)c3ccc4c(c3)OCO4)CC2)cc1 12.6 µM [activator, partial curve]
